# Test results as given in the supplement of paper PMC8728848.
# Some of the results follow.
# B1: XL-35 (Xenopus laevis) (protein)
# chain: MLVHILLLLVTGGLSQSCDPVVIVASKNMVKQLDCDKFRNCKEIKDSNEEAQDGIYTLTSPDGISYQTFCDMTTNGGGWTLVASVHENNMAGKCTIGDRWSSQQGNRADYPEGDGNWANYNTFGSAGGATSDDYKNPGYYDIEAYNLGVWHVPNKTPLSVWRNSSLQRYRTTDGILFKHGGNLFSLYRIYPVKYGIGSCSKDSGPTVPVVYDLGSANLTASFYSPGFRSQFTPGYIQFRPINTEKAALALCPGMKMESCNVEHVCIGGGGYFPEADPRQCGDFAAYDFNGYGTKKFNSAGIEITEAAVLLFYL
# Assays:
# Assay in all cases: glycan array binding signal (z-score within array); higher = stronger binding
# Details in all cases: glycan notation: IUPAC condensed, linker removed
# [1] = biological target: Neu5Ac(a2-3)[Neu5Ac(a2-6)]GalNAc
# Summary of the method: (§1)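 Columns mapping to the same glycan were averaged after glycan names were converted to IUPAC-condensed notation. The data come from 3228 arrays in the Consortium for Functional Glycomics database, limited to those with an available protein sequence. Binding is reported as a within-array Z-score averaged across arrays of one protein sequence and across linkers.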
# Neu5Ac(a2-6)Gal = biological target: Neu5Ac(a2-6)Gal
# Summary of the method: as §1
# [2] = biological target: Neu5Ac(a2-6)Gal(b1-3)GlcNAc(b1-3)[Gal(b1-4)GlcNAc(b1-6)]Gal(b1-4)Glc
# Summary of the method: as §1
# Neu5Ac(a2-6)Gal(b1-4)Glc = biological target: Neu5Ac(a2-6)Gal(b1-4)Glc
# Summary of the method: as §1
# [3] = biological target: Neu5Ac(a2-6)Gal(b1-4)GlcNAc
# Summary of the method: as §1
# [4] = biological target: Neu5Ac(a2-6)Gal(b1-4)GlcNAc(b1-2)Man
# Summary of the method: as §1
# [5] = biological target: Neu5Ac(a2-6)Gal(b1-4)GlcNAc(b1-2)Man(a1-3)Man(b1-4)GlcNAc(b1-4)GlcNAc
# Summary of the method: as §1
# [6] = biological target: Neu5Ac(a2-6)Gal(b1-4)GlcNAc(b1-2)Man(a1-3)[Gal(b1-4)GlcNAc(b1-2)Man(a1-6)]Man(b1-4)GlcNAc(b1-4)GlcNAc
# Summary of the method: as §1
# [7] = biological target: Neu5Ac(a2-6)Gal(b1-4)GlcNAc(b1-2)Man(a1-3)[GlcNAc(b1-2)Man(a1-6)]Man(b1-4)GlcNAc(b1-4)GlcNAc
# Summary of the method: as §1
# [8] = biological target: Neu5Ac(a2-6)Gal(b1-4)GlcNAc(b1-2)Man(a1-3)[GlcNAc(b1-4)][Neu5Ac(a2-6)Gal(b1-4)GlcNAc(b1-2)Man(a1-6)]Man(b1-4)GlcNAc(b1-4)GlcNAc
# Summary of the method: as §1
# [9] = biological target: Neu5Ac(a2-6)Gal(b1-4)GlcNAc(b1-2)Man(a1-3)[Man(a1-6)]Man(b1-4)GlcNAc(b1-4)GlcNAc
# Summary of the method: as §1
# [10] = biological target: Neu5Ac(a2-6)Gal(b1-4)GlcNAc(b1-2)Man(a1-3)[Neu5Ac(a2-3)Gal(b1-4)GlcNAc(b1-2)Man(a1-6)]Man(b1-4)GlcNAc(b1-4)GlcNAc
# Summary of the method: as §1
# [11] = biological target: Neu5Ac(a2-6)Gal(b1-4)GlcNAc(b1-2)Man(a1-3)[Neu5Ac(a2-6)Gal(b1-4)GlcNAc(b1-2)Man(a1-6)]Man(b1-4)GlcNAc(b1-4)GlcNAc
# Summary of the method: as §1
# [12] = biological target: Neu5Ac(a2-6)Gal(b1-4)GlcNAc(b1-2)Man(a1-3)[Neu5Ac(a2-6)Gal(b1-4)GlcNAc(b1-2)Man(a1-6)]Man(b1-4)GlcNAc(b1-4)[Fuc(a1-6)]GlcNAc
# Summary of the method: as §1
# [13] = biological target: Neu5Ac(a2-6)Gal(b1-4)GlcNAc(b1-2)Man(a1-6)Man(b1-4)GlcNAc(b1-4)GlcNAc
# Summary of the method: as §1
# [14] = biological target: Neu5Ac(a2-6)Gal(b1-4)GlcNAc(b1-2)Man(a1-6)[Gal(b1-4)GlcNAc(b1-2)Man(a1-3)]Man(b1-4)GlcNAc(b1-4)GlcNAc
# Summary of the method: as §1
# [15] = biological target: Neu5Ac(a2-6)Gal(b1-4)GlcNAc(b1-2)Man(a1-6)[GlcNAc(b1-2)Man(a1-3)]Man(b1-4)GlcNAc(b1-4)GlcNAc
# Summary of the method: as §1
# [16] = biological target: Neu5Ac(a2-6)Gal(b1-4)GlcNAc(b1-2)Man(a1-6)[Man(a1-3)]Man(b1-4)GlcNAc(b1-4)GlcNAc
# Summary of the method: as §1
# [17] = biological target: Neu5Ac(a2-6)Gal(b1-4)GlcNAc(b1-2)[Neu5Ac(a2-6)Gal(b1-4)GlcNAc(b1-4)]Man(a1-3)[GlcNAc(b1-4)][Neu5Ac(a2-6)Gal(b1-4)GlcNAc(b1-2)[Neu5Ac(a2-6)Gal(b1-4)GlcNAc(b1-6)]Man(a1-6)]Man(b1-4)GlcNAc(b1-4)GlcNAc
# Summary of the method: as §1
# [18] = biological target: Neu5Ac(a2-6)Gal(b1-4)GlcNAc(b1-2)[Neu5Ac(a2-6)Gal(b1-4)GlcNAc(b1-4)]Man(a1-3)[GlcNAc(b1-4)][Neu5Ac(a2-6)Gal(b1-4)GlcNAc(b1-4)Man(a1-6)]Man(b1-4)GlcNAc(b1-4)GlcNAc
# Summary of the method: as §1
# [19] = biological target: Neu5Ac(a2-6)Gal(b1-4)GlcNAc(b1-2)[Neu5Ac(a2-6)Gal(b1-4)GlcNAc(b1-6)]Man(a1-6)[Neu5Ac(a2-6)Gal(b1-4)GlcNAc(b1-2)Man(a1-3)][GlcNAc(b1-4)]Man(b1-4)GlcNAc(b1-4)GlcNAc
# Summary of the method: as §1
# [20] = biological target: Neu5Ac(a2-6)Gal(b1-4)GlcNAc(b1-3)Gal(b1-3)GlcNAc
# Summary of the method: as §1
# [21] = biological target: Neu5Ac(a2-6)Gal(b1-4)GlcNAc(b1-3)Gal(b1-4)GlcNAc
# Summary of the method: as §1
# [22] = biological target: Neu5Ac(a2-6)Gal(b1-4)GlcNAc(b1-3)Gal(b1-4)GlcNAc(b1-2)Man(a1-3)[Neu5Ac(a2-6)Gal(b1-4)GlcNAc(b1-3)Gal(b1-4)GlcNAc(b1-2)Man(a1-6)]GalNAc
# Summary of the method: as §1
# [23] = biological target: Neu5Ac(a2-6)Gal(b1-4)GlcNAc(b1-3)Gal(b1-4)GlcNAc(b1-3)Gal(b1-4)GlcNAc
# Summary of the method: as §1
# [24] = biological target: Neu5Ac(a2-6)Gal(b1-4)GlcNAc(b1-3)Gal(b1-4)GlcNAc(b1-3)Gal(b1-4)GlcNAc(b1-2)Man(a1-3)[Neu5Ac(a2-6)Gal(b1-4)GlcNAc(b1-3)Gal(b1-4)GlcNAc(b1-3)Gal(b1-4)GlcNAc(b1-2)Man(a1-6)]GalNAc
# Summary of the method: as §1
# [25] = biological target: Neu5Ac(a2-6)Gal(b1-4)GlcNAc(b1-3)Gal(b1-4)GlcNAc(b1-3)GalNAc
# Summary of the method: as §1
# [26] = biological target: Neu5Ac(a2-6)Gal(b1-4)GlcNAc(b1-3)Gal(b1-4)GlcNAc(b1-3)[Neu5Ac(a2-6)Gal(b1-4)GlcNAc(b1-3)Gal(b1-4)GlcNAc(b1-6)]GalNAc
# Summary of the method: as §1
# [27] = biological target: Neu5Ac(a2-6)Gal(b1-4)GlcNAc(b1-3)Gal(b1-4)GlcNAc(b1-6)[Gal(b1-3)]GalNAc
# Summary of the method: as §1
# [28] = biological target: Neu5Ac(a2-6)Gal(b1-4)GlcNAc(b1-3)Gal(b1-4)[Fuc(a1-3)]GlcNAc(b1-3)Gal(b1-4)[Fuc(a1-3)]GlcNAc
# Summary of the method: as §1
# [29] = biological target: Neu5Ac(a2-6)Gal(b1-4)GlcNAc(b1-3)GalNAc
# Summary of the method: as §1
# [30] = biological target: Neu5Ac(a2-6)Gal(b1-4)GlcNAc(b1-3)[Neu5Ac(a2-6)Gal(b1-4)GlcNAc(b1-6)]GalNAc
# Summary of the method: as §1
# [31] = biological target: Neu5Ac(a2-6)Gal(b1-4)GlcNAc(b1-6)GalNAc
# Summary of the method: as §1
# [32] = biological target: Neu5Ac(a2-6)Gal(b1-4)GlcNAc(b1-6)[Gal(b1-3)GlcNAc(b1-3)]Gal(b1-4)Glc
# Summary of the method: as §1
# [33] = biological target: Neu5Ac(a2-6)Gal(b1-4)GlcNAc(b1-6)[Gal(b1-3)]GalNAc
# Summary of the method: as §1
# [34] = biological target: Neu5Ac(a2-6)Gal(b1-4)GlcNAc6S
# Summary of the method: as §1
# Neu5Ac(a2-6)GalNAc = biological target: Neu5Ac(a2-6)GalNAc
# Summary of the method: as §1
# [35] = biological target: Neu5Ac(a2-6)GalNAc(b1-4)GlcNAc
# Summary of the method: as §1
binder,measurement,setting,value
B1,glycan array binding signal (z-score),[1],0.04
same,glycan array binding signal (z-score),Neu5Ac(a2-6)Gal,-0.04
same,glycan array binding signal (z-score),[2],0.161
same,glycan array binding signal (z-score),Neu5Ac(a2-6)Gal(b1-4)Glc,-0.058
same,glycan array binding signal (z-score),[3],-0.102
same,glycan array binding signal (z-score),[4],-0.003
same,glycan array binding signal (z-score),[5],-0.107
same,glycan array binding signal (z-score),[6],-0.249
same,glycan array binding signal (z-score),[7],-0.328
same,glycan array binding signal (z-score),[8],-0.412
same,glycan array binding signal (z-score),[9],-0.249
same,glycan array binding signal (z-score),[10],-0.126
same,glycan array binding signal (z-score),[11],0.044
same,glycan array binding signal (z-score),[12],0.029
same,glycan array binding signal (z-score),[13],-0.2
same,glycan array binding signal (z-score),[14],-0.115
same,glycan array binding signal (z-score),[15],0.009
same,glycan array binding signal (z-score),[16],-0.725
same,glycan array binding signal (z-score),[17],-0.371
same,glycan array binding signal (z-score),[18],0.185
same,glycan array binding signal (z-score),[19],-0.157
same,glycan array binding signal (z-score),[20],0.091
same,glycan array binding signal (z-score),[21],-0.13
same,glycan array binding signal (z-score),[22],-0.447
same,glycan array binding signal (z-score),[23],-0.208
same,glycan array binding signal (z-score),[24],-0.111
same,glycan array binding signal (z-score),[25],0.385
same,glycan array binding signal (z-score),[26],0.264
same,glycan array binding signal (z-score),[27],-0.293
same,glycan array binding signal (z-score),[28],-0.147
same,glycan array binding signal (z-score),[29],-0.374
same,glycan array binding signal (z-score),[30],-0.519
same,glycan array binding signal (z-score),[31],-0.112
same,glycan array binding signal (z-score),[32],-0.272
same,glycan array binding signal (z-score),[33],0.356
same,glycan array binding signal (z-score),[34],-0.145
same,glycan array binding signal (z-score),Neu5Ac(a2-6)GalNAc,-0.115
same,glycan array binding signal (z-score),[35],-0.041
